Test results reported in paper PMC12820563.
The list shows a part of the results. The list includes weakly bound sequences.

Biological target: T1, MBP-FoxP3dN (UniProt Q99JB6)
T1 sequence: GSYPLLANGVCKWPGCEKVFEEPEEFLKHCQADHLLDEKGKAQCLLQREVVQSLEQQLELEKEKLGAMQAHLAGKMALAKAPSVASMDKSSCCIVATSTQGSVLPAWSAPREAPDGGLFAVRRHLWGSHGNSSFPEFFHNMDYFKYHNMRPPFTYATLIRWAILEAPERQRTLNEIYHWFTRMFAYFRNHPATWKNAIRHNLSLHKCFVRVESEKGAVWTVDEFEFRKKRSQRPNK
Assay: PD-seq (MBP pull-down with sequencing)
Conditions: 20 mM Tris-HCl pH 7.5, 100 mM NaCl, 1.5 mM MgCl2, 0.4 uM protein, 0.1 uM dsDNA library, 30 min, room temperature, amylose pull-down; high values mean tight binding; double strand, one strand shown

Row | Sequence | binding signal (RPM ratio (pull-down/input))
1 | GATGATTGTTCTCCCAGCTGATGAATTCACGGAGTCGAGTAAACAAATTTTCCTAATCTTTCTGTTCAAGCGCCATCTAC | 0.185
2 | GATGATTGTTCTCCCAGCTGATGAATTGGATTACTCGAGTAAACAAATTTTCCTAATCTTTCTGTTCAAGCGCCATCTAC | 1.88
3 | GATGATTGTTCTCCCAGCTGATGAATTCCTAGTGTCGAGTAAACAAATTTTCCTAATCTTTCTGTTCAAGCGCCATCTAC | 0.373
4 | GATGATTGTTCTCCCAGCTGATGAATTATTCACGTCGAGTAAACAAATTTTCCTAATCTTTCTGTTCAAGCGCCATCTAC | 0.343
5 | GATGATTGTTCTCCCAGCTGATGAATTTGATTGTTCGAGTAAACAAATTTTCCTAATCTTTCTGTTCAAGCGCCATCTAC | 6.32
6 | GATGATTGTTCTCCCAGCTGATGAATTTTTGGTGTCGAGTAAACAAATTTTCCTAATCTTTCTGTTCAAGCGCCATCTAC | 0.396
7 | GATGATTGTTCTCCCAGCTGATGAATTCAGCGTATCGAGTAAACAAATTTTCCTAATCTTTCTGTTCAAGCGCCATCTAC | 1.13
8 | GATGATTGTTCTCCCAGCTGATGAATTATGAAGATCGAGTAAACAAATTTTCCTAATCTTTCTGTTCAAGCGCCATCTAC | 0.339
9 | GATGATTGTTCTCCCAGCTGATGAATTCCTTATGTCGAGTAAACAAATTTTCCTAATCTTTCTGTTCAAGCGCCATCTAC | 0.316
10 | GATGATTGTTCTCCCAGCTGATGAATTGCCATATTCGAGTAAACAAATTTTCCTAATCTTTCTGTTCAAGCGCCATCTAC | 0.952
11 | GATGATTGTTCTCCCAGCTGATGAATTACCAATTTCGAGTAAACAAATTTTCCTAATCTTTCTGTTCAAGCGCCATCTAC | 0.407
12 | GATGATTGTTCTCCCAGCTGATGAATTTCGTATTTCGAGTAAACAAATTTTCCTAATCTTTCTGTTCAAGCGCCATCTAC | 2.47
13 | GATGATTGTTCTCCCAGCTGATGAATTCAGAGGCTCGAGTAAACAAATTTTCCTAATCTTTCTGTTCAAGCGCCATCTAC | 0.387
14 | GATGATTGTTCTCCCAGCTGATGAATTGGGATCCTCGAGTAAACAAATTTTCCTAATCTTTCTGTTCAAGCGCCATCTAC | 0.346
15 | GATGATTGTTCTCCCAGCTGATGAATTTCGAGTGTCGAGTAAACAAATTTTCCTAATCTTTCTGTTCAAGCGCCATCTAC | 1.08
16 | GATGATTGTTCTCCCAGCTGATGAATTTAGAAGATCGAGTAAACAAATTTTCCTAATCTTTCTGTTCAAGCGCCATCTAC | 0.245
17 | GATGATTGTTCTCCCAGCTGATGAATTCATCACATCGAGTAAACAAATTTTCCTAATCTTTCTGTTCAAGCGCCATCTAC | 0.842
18 | GATGATTGTTCTCCCAGCTGATGAATTTTACACATCGAGTAAACAAATTTTCCTAATCTTTCTGTTCAAGCGCCATCTAC | 0.439
19 | GATGATTGTTCTCCCAGCTGATGAATTTATATATTCGAGTAAACAAATTTTCCTAATCTTTCTGTTCAAGCGCCATCTAC | 2.09
20 | GATGATTGTTCTCCCAGCTGATGAATTGACTGGCTCGAGTAAACAAATTTTCCTAATCTTTCTGTTCAAGCGCCATCTAC | 0.258
21 | GATGATTGTTCTCCCAGCTGATGAATTTGTGTTCTCGAGTAAACAAATTTTCCTAATCTTTCTGTTCAAGCGCCATCTAC | 6.29

Row | Sequence | binding signal (RPM ratio (pull-down/input))
22 | GATGATTGTTCTCCCAGCTGATGAATTGCCGCAATCGAGTAAACAAATTTTCCTAATCTTTCTGTTCAAGCGCCATCTAC | 3.46
23 | GATGATTGTTCTCCCAGCTGATGAATTGTCTTACTCGAGTAAACAAATTTTCCTAATCTTTCTGTTCAAGCGCCATCTAC | 0.469
24 | GATGATTGTTCTCCCAGCTGATGAATTCAGTACGTCGAGTAAACAAATTTTCCTAATCTTTCTGTTCAAGCGCCATCTAC | 0.522
25 | GATGATTGTTCTCCCAGCTGATGAATTAGACTTCTCGAGTAAACAAATTTTCCTAATCTTTCTGTTCAAGCGCCATCTAC | 0.433
26 | GATGATTGTTCTCCCAGCTGATGAATTCCTATTATCGAGTAAACAAATTTTCCTAATCTTTCTGTTCAAGCGCCATCTAC | 0.622
27 | GATGATTGTTCTCCCAGCTGATGAATTTACTCTTTCGAGTAAACAAATTTTCCTAATCTTTCTGTTCAAGCGCCATCTAC | 0.399
28 | GATGATTGTTCTCCCAGCTGATGAATTGAATGTGTCGAGTAAACAAATTTTCCTAATCTTTCTGTTCAAGCGCCATCTAC | 1.26
29 | GATGATTGTTCTCCCAGCTGATGAATTAGGTTACTCGAGTAAACAAATTTTCCTAATCTTTCTGTTCAAGCGCCATCTAC | 1.43
30 | GATGATTGTTCTCCCAGCTGATGAATTGCAGCGATCGAGTAAACAAATTTTCCTAATCTTTCTGTTCAAGCGCCATCTAC | 0.779
31 | GATGATTGTTCTCCCAGCTGATGAATTCCTGCTCTCGAGTAAACAAATTTTCCTAATCTTTCTGTTCAAGCGCCATCTAC | 0.293
32 | GATGATTGTTCTCCCAGCTGATGAATTTTTGAAATCGAGTAAACAAATTTTCCTAATCTTTCTGTTCAAGCGCCATCTAC | 0.346
33 | GATGATTGTTCTCCCAGCTGATGAATTGCGAGGCTCGAGTAAACAAATTTTCCTAATCTTTCTGTTCAAGCGCCATCTAC | 0.762
34 | GATGATTGTTCTCCCAGCTGATGAATTCCACAATTCGAGTAAACAAATTTTCCTAATCTTTCTGTTCAAGCGCCATCTAC | 0.368
35 | GATGATTGTTCTCCCAGCTGATGAATTAAACGTTTCGAGTAAACAAATTTTCCTAATCTTTCTGTTCAAGCGCCATCTAC | 0.472
36 | GATGATTGTTCTCCCAGCTGATGAATTTCATGCATCGAGTAAACAAATTTTCCTAATCTTTCTGTTCAAGCGCCATCTAC | 1.04
37 | GATGATTGTTCTCCCAGCTGATGAATTAAAAGTTTCGAGTAAACAAATTTTCCTAATCTTTCTGTTCAAGCGCCATCTAC | 0.273
38 | GATGATTGTTCTCCCAGCTGATGAATTCTTGGTTTCGAGTAAACAAATTTTCCTAATCTTTCTGTTCAAGCGCCATCTAC | 0.427
39 | GATGATTGTTCTCCCAGCTGATGAATTAGAGCCATCGAGTAAACAAATTTTCCTAATCTTTCTGTTCAAGCGCCATCTAC | 1.14
40 | GATGATTGTTCTCCCAGCTGATGAATTGCGAGTGTCGAGTAAACAAATTTTCCTAATCTTTCTGTTCAAGCGCCATCTAC | 1.6
41 | GATGATTGTTCTCCCAGCTGATGAATTGTAGGTGTCGAGTAAACAAATTTTCCTAATCTTTCTGTTCAAGCGCCATCTAC | 0.898
42 | GATGATTGTTCTCCCAGCTGATGAATTCTTTTTTTCGAGTAAACAAATTTTCCTAATCTTTCTGTTCAAGCGCCATCTAC | 0.311

Row | Sequence | binding signal (RPM ratio (pull-down/input))
43 | GATGATTGTTCTCCCAGCTGATGAATTGACGATATCGAGTAAACAAATTTTCCTAATCTTTCTGTTCAAGCGCCATCTAC | 0.549
44 | GATGATTGTTCTCCCAGCTGATGAATTGCGTGTATCGAGTAAACAAATTTTCCTAATCTTTCTGTTCAAGCGCCATCTAC | 2.58
45 | GATGATTGTTCTCCCAGCTGATGAATTACTTAGCTCGAGTAAACAAATTTTCCTAATCTTTCTGTTCAAGCGCCATCTAC | 0.257
46 | GATGATTGTTCTCCCAGCTGATGAATTTTTGTGATCGAGTAAACAAATTTTCCTAATCTTTCTGTTCAAGCGCCATCTAC | 0.656
47 | GATGATTGTTCTCCCAGCTGATGAATTGAGTCCGTCGAGTAAACAAATTTTCCTAATCTTTCTGTTCAAGCGCCATCTAC | 0.293
48 | GATGATTGTTCTCCCAGCTGATGAATTGTACTAATCGAGTAAACAAATTTTCCTAATCTTTCTGTTCAAGCGCCATCTAC | 0.452
49 | GATGATTGTTCTCCCAGCTGATGAATTATCTTTTTCGAGTAAACAAATTTTCCTAATCTTTCTGTTCAAGCGCCATCTAC | 0.469
50 | GATGATTGTTCTCCCAGCTGATGAATTAAACACTTCGAGTAAACAAATTTTCCTAATCTTTCTGTTCAAGCGCCATCTAC | 0.614
51 | GATGATTGTTCTCCCAGCTGATGAATTAACGATCTCGAGTAAACAAATTTTCCTAATCTTTCTGTTCAAGCGCCATCTAC | 0.332
52 | GATGATTGTTCTCCCAGCTGATGAATTTATACCTTCGAGTAAACAAATTTTCCTAATCTTTCTGTTCAAGCGCCATCTAC | 0.85
53 | GATGATTGTTCTCCCAGCTGATGAATTCAGTACTTCGAGTAAACAAATTTTCCTAATCTTTCTGTTCAAGCGCCATCTAC | 0.481
54 | GATGATTGTTCTCCCAGCTGATGAATTCGTGTGATCGAGTAAACAAATTTTCCTAATCTTTCTGTTCAAGCGCCATCTAC | 0.696
55 | GATGATTGTTCTCCCAGCTGATGAATTGCCTGTCTCGAGTAAACAAATTTTCCTAATCTTTCTGTTCAAGCGCCATCTAC | 0.696
56 | GATGATTGTTCTCCCAGCTGATGAATTGCGTGCGTCGAGTAAACAAATTTTCCTAATCTTTCTGTTCAAGCGCCATCTAC | 1.78
57 | GATGATTGTTCTCCCAGCTGATGAATTTAAACCTTCGAGTAAACAAATTTTCCTAATCTTTCTGTTCAAGCGCCATCTAC | 0.278
58 | GATGATTGTTCTCCCAGCTGATGAATTCTGCAAATCGAGTAAACAAATTTTCCTAATCTTTCTGTTCAAGCGCCATCTAC | 0.696
59 | GATGATTGTTCTCCCAGCTGATGAATTGATACATTCGAGTAAACAAATTTTCCTAATCTTTCTGTTCAAGCGCCATCTAC | 1.84
60 | GATGATTGTTCTCCCAGCTGATGAATTGACGGCTTCGAGTAAACAAATTTTCCTAATCTTTCTGTTCAAGCGCCATCTAC | 0.423
61 | GATGATTGTTCTCCCAGCTGATGAATTGCGCTAATCGAGTAAACAAATTTTCCTAATCTTTCTGTTCAAGCGCCATCTAC | 0.792
62 | GATGATTGTTCTCCCAGCTGATGAATTCATGCCCTCGAGTAAACAAATTTTCCTAATCTTTCTGTTCAAGCGCCATCTAC | 0.665
63 | GATGATTGTTCTCCCAGCTGATGAATTTGGACGATCGAGTAAACAAATTTTCCTAATCTTTCTGTTCAAGCGCCATCTAC | 0.254
